Variants at the floor of the assay are shown more often than the library holds them.
B1: tRNA (parent)
chain: CUCUCGGUAGCCAAGUUGGUUUAAGGCGCAAGACUUUAAUUUAUCACUACGAAAUCUUGAGAUCGGGCGUUCGACUCGCCCCCGGGAGAUUUUUUCCUCGAGCAA

Variants of: B1
Assay: nonsense suppression (GFP-seq) (ratio to wild type); higher = more function; SUP4oc tRNA, yeast GFP reporter sort-seq
Summary of the method: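 Yeast were grown in raffinose/galactose medium with 80 mg/L adenine, each strain bearing a genome-integrated ochre-suppressor tRNA variant from a ~3% random-mutation library, a galactose-driven GFP ochre reporter, and RFP. After sorting into GFP/RFP bins, every bin was sequenced on an Illumina platform at phred ≥30. The GFPSEQ value, a measure of nonsense suppression, is the weighted bin median GFP/RFP relative to the unmutated parent tRNA, using each variant's estimated cell share per bin as the weight. Only variants with ≥100 reads and ≥30 cells were included.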
In the case of A9G A60G U76A, the nonsense suppression is reported as at most 0.026. A9G A60U G88A showed a nonsense suppression of at most 0.026. For A9G A62G G73U, the nonsense suppression was at most 0.026. Work on A9G A62U yielded a nonsense suppression of at most 0.026. For A9G A62U G65U, the nonsense suppression was at most 0.026. With A9G A74C the nonsense suppression was 0.0286. In the case of A9G A89G, the nonsense suppression is reported as at most 0.026. Variant A9G A89U has a nonsense suppression of at most 0.026. Variant A9G C11A U57C C75A G78C has a nonsense suppression of at most 0.026. Variant A9G C11G has a nonsense suppression of at most 0.026. In the case of A9G C11G A31G G61A G86A, the nonsense suppression is reported as at most 0.026. With A9G C11G A31G G61A G86A A89C the nonsense suppression was at most 0.026. In the case of A9G C11G A62C A89U, the nonsense suppression is reported as at most 0.026. Work on A9G C11G G25C yielded a nonsense suppression of at most 0.026. A9G C11G G66A C72G G78A showed a nonsense suppression of at most 0.026. For A9G C11G U21A G67A, the nonsense suppression was at most 0.026. Work on A9G C11U yielded a nonsense suppression of 0.0313. With A9G C11U G15C G32U C34U G67C C80G the nonsense suppression was at most 0.026. A9G C11U G28A A30G showed a nonsense suppression of at most 0.026. Work on A9G C12A A14G yielded a nonsense suppression of at most 0.026. With A9G C12A U22G G86A the nonsense suppression was at most 0.026. With A9G C12G U57G U58C G67A the nonsense suppression was at most 0.026. With A9G C12U G61A U70A the nonsense suppression was at most 0.026. With A9G C12U G61C U63C G88C the nonsense suppression was at most 0.026. Variant A9G C12U U70A has a nonsense suppression of at most 0.026. Work on A9G C27A A33C U70G yielded a nonsense suppression of at most 0.026. With A9G C27A U35A G88A the nonsense suppression was at most 0.026. Work on A9G C27G C83G yielded a nonsense suppression of at most 0.026. For A9G C27U U35C G86C, the nonsense suppression was at most 0.026. With A9G C29A G32U C34U the nonsense suppression was at most 0.026. With A9G C29G A74U C75A the nonsense suppression was at most 0.026. Variant A9G C29G A74U C75A A87C has a nonsense suppression of at most 0.026. With A9G C29U the nonsense suppression was 0.2. With A9G C29U A54G U71C the nonsense suppression was at most 0.026. A9G C34A G59C gave a nonsense suppression of at most 0.026. Work on A9G C56A C83A yielded a nonsense suppression of at most 0.026. Work on A9G C64A G88U yielded a nonsense suppression of at most 0.026. Variant A9G C68G U71G C77U has a nonsense suppression of at most 0.026. Work on A9G C68U yielded a nonsense suppression of 0.153. Variant A9G C72A has a nonsense suppression of 0.0268. Variant A9G C72G U76G G88U has a nonsense suppression of at most 0.026. Work on A9G C75U yielded a nonsense suppression of 1.17. A9G C75U U76C G78C C80U G88A gave a nonsense suppression of at most 0.026. Variant A9G C77G has a nonsense suppression of at most 0.026. A9G C79A A87C gave a nonsense suppression of at most 0.026. Work on A9G C81U yielded a nonsense suppression of 0.028. Work on A9G G10C G32U U58A yielded a nonsense suppression of at most 0.026. For A9G G10U, the nonsense suppression was 0.0476. With A9G G10U C80U A87C the nonsense suppression was at most 0.026. A9G G10U G65A G84A showed a nonsense suppression of at most 0.026. With A9G G15A A60C C64G the nonsense suppression was at most 0.026. In the case of A9G G15A U16A A62C U70G A74C G85U, the nonsense suppression is reported as at most 0.026. With A9G G15C C29A G32U C34G the nonsense suppression was at most 0.026. Work on A9G G15C G28A yielded a nonsense suppression of at most 0.026. With A9G G15U A23G G25U A30C the nonsense suppression was at most 0.026. Variant A9G G18C has a nonsense suppression of at most 0.026. For A9G G18C C34G C56U, the nonsense suppression was at most 0.026. With A9G G18U G88A the nonsense suppression was at most 0.026. For A9G G19C, the nonsense suppression was at most 0.026. For A9G G19C A30C G67C U76G C82U, the nonsense suppression was at most 0.026. With A9G G19C A33G C64A G67C C79U G88C the nonsense suppression was at most 0.026. With A9G G19C G67C the nonsense suppression was at most 0.026. Work on A9G G19U yielded a nonsense suppression of at most 0.026. With A9G G19U A31C G78U the nonsense suppression was at most 0.026. For A9G G19U U63C, the nonsense suppression was at most 0.026. With A9G G25C G61C G88A the nonsense suppression was at most 0.026. A9G G26U C68G A74C gave a nonsense suppression of at most 0.026. Variant A9G G28U A33C C34G has a nonsense suppression of at most 0.026. With A9G G59C C75U the nonsense suppression was at most 0.026. For A9G G59U, the nonsense suppression was at most 0.026. Variant A9G G61A C77U has a nonsense suppression of at most 0.026. For A9G G66A, the nonsense suppression was at most 0.026. Variant A9G G66C C81G has a nonsense suppression of at most 0.026. Work on A9G G66U yielded a nonsense suppression of at most 0.026. Work on A9G G67A G86U yielded a nonsense suppression of at most 0.026. A9G G78A G84A gave a nonsense suppression of at most 0.026. For A9G G78C C80A, the nonsense suppression was at most 0.026. In the case of A9G G84A, the nonsense suppression is reported as 0.0699. Variant A9G G84C has a nonsense suppression of at most 0.026. A9G G86C gave a nonsense suppression of at most 0.026. Variant A9G G88C has a nonsense suppression of at most 0.026. In the case of A9G U16A G19U A89U, the nonsense suppression is reported as at most 0.026. With A9G U16A G19U G86C the nonsense suppression was at most 0.026. Work on A9G U16C G18U yielded a nonsense suppression of at most 0.026. A9G U16G showed a nonsense suppression of 0.551. With A9G U17C U22C the nonsense suppression was 0.133. A9G U20C A23G G66A gave a nonsense suppression of at most 0.026. In the case of A9G U20G G26U C27A U63A U76C, the nonsense suppression is reported as at most 0.026. For A9G U21A U55C G69C C77G G78U, the nonsense suppression was at most 0.026. A9G U21G A30G C82A gave a nonsense suppression of at most 0.026. Work on A9G U21G G32C yielded a nonsense suppression of at most 0.026. Variant A9G U22A has a nonsense suppression of 0.212. For A9G U22A C68A, the nonsense suppression was at most 0.026. A9G U22C G66A G86A showed a nonsense suppression of at most 0.026. For A9G U35A, the nonsense suppression was at most 0.026. For A9G U35A A60U G66A C83U, the nonsense suppression was at most 0.026. In the case of A9G U35A A60U G66A C83U G85U, the nonsense suppression is reported as at most 0.026. A9G U35C gave a nonsense suppression of at most 0.026. A9G U35G U63C G84A showed a nonsense suppression of at most 0.026. Variant A9G U57C has a nonsense suppression of at most 0.026. A9G U58A G61A G73U gave a nonsense suppression of at most 0.026. With A9G U58C G61A G66A C81U the nonsense suppression was at most 0.026. A9G U58C G66C C72G gave a nonsense suppression of at most 0.026. With A9G U63A the nonsense suppression was 0.836. In the case of A9G U63C, the nonsense suppression is reported as 0.772. Variant A9G U70A C81A has a nonsense suppression of at most 0.026. In the case of A9G U70C, the nonsense suppression is reported as at most 0.026. A9G U70C C80U gave a nonsense suppression of at most 0.026. A9G U71A C80A C83A A89U gave a nonsense suppression of at most 0.026. A9G U71C gave a nonsense suppression of 0.0266. Variant A9G U76A has a nonsense suppression of 0.103. For A9G U76C G85C, the nonsense suppression was at most 0.026. Variant A9U has a nonsense suppression of 0.802. A9U A13C G19U G85A showed a nonsense suppression of at most 0.026. For A9U A13C G59C, the nonsense suppression was at most 0.026. In the case of A9U A13C U57C C68G A87G, the nonsense suppression is reported as at most 0.026. Variant A9U A13C U57C C68G A87U has a nonsense suppression of at most 0.026. A9U A13G U57G showed a nonsense suppression of at most 0.026. Work on A9U A13U yielded a nonsense suppression of 0.819. For A9U A13U A24G, the nonsense suppression was 0.212. Work on A9U A13U A54G yielded a nonsense suppression of at most 0.026. With A9U A14C G15C A54C C82U the nonsense suppression was at most 0.026. A9U A14C U55G U63A showed a nonsense suppression of at most 0.026. A9U A14C U63A G78U G84A showed a nonsense suppression of at most 0.026. A9U A14G C34A A54G G84C showed a nonsense suppression of at most 0.026. With A9U A14U C82U the nonsense suppression was at most 0.026. In the case of A9U A23C A24C, the nonsense suppression is reported as at most 0.026. For A9U A23G U55C A62U G66A, the nonsense suppression was at most 0.026. With A9U A23U A62C G67U the nonsense suppression was at most 0.026. In the case of A9U A24C C83A, the nonsense suppression is reported as at most 0.026. Work on A9U A24C G66C C83U G85A yielded a nonsense suppression of at most 0.026. A9U A24U C34U showed a nonsense suppression of at most 0.026. Work on A9U A30C G66U yielded a nonsense suppression of at most 0.026. A9U A30G showed a nonsense suppression of 0.0995. Variant A9U A30G C56G G65A has a nonsense suppression of at most 0.026. With A9U A30U A33U A74U the nonsense suppression was at most 0.026. In the case of A9U A31C U63G G67C, the nonsense suppression is reported as at most 0.026. Work on A9U A31G G32U U63G yielded a nonsense suppression of at most 0.026. A9U A31G U70C G73U C81U showed a nonsense suppression of at most 0.026. Variant A9U A33G A74U has a nonsense suppression of at most 0.026. For A9U A33G C79U C83U, the nonsense suppression was at most 0.026. Work on A9U A33U G69C U76C C83U yielded a nonsense suppression of at most 0.026. Variant A9U A60G has a nonsense suppression of at most 0.026. In the case of A9U A60U, the nonsense suppression is reported as 0.0653. Work on A9U A62G yielded a nonsense suppression of at most 0.026. In the case of A9U A62U, the nonsense suppression is reported as at most 0.026. In the case of A9U A74C, the nonsense suppression is reported as at most 0.026. For A9U A74U, the nonsense suppression was 0.106. With A9U A89U the nonsense suppression was at most 0.026. Work on A9U C11A A14G C56G G69A U76C yielded a nonsense suppression of at most 0.026. For A9U C11U, the nonsense suppression was at most 0.026. Work on A9U C11U A74G yielded a nonsense suppression of at most 0.026. For A9U C12A A13C C72U C79A, the nonsense suppression was at most 0.026. Work on A9U C12G A60U C79A yielded a nonsense suppression of at most 0.026. With A9U C12U the nonsense suppression was 0.29. A9U C12U U35A U55A showed a nonsense suppression of at most 0.026. A9U C27U A54C A62C showed a nonsense suppression of at most 0.026. Variant A9U C29G has a nonsense suppression of at most 0.026. For A9U C29G G66U A74G, the nonsense suppression was at most 0.026. A9U C34U gave a nonsense suppression of at most 0.026. In the case of A9U C56A A62C, the nonsense suppression is reported as at most 0.026. Variant A9U C64A G66C has a nonsense suppression of at most 0.026. A9U C64U showed a nonsense suppression of 0.0349. In the case of A9U C72G, the nonsense suppression is reported as 0.0446. With A9U C72U the nonsense suppression was at most 0.026. Variant A9U C75U has a nonsense suppression of 0.656. In the case of A9U C77U, the nonsense suppression is reported as 0.0389.

Source: the RNAGym collection of RNA variant scans (doi:10.1101/gad.245936.114)
